The list shows a part of the results. Many values rest on one well or one pass, so single values are uncertain.
Legend:
Assay in all cases: cell count relative to DMSO control; melanoma cells; higher = more viable cells
Settings in all cases: library dose: low library concentration; 72 h
MZ2-MEL = system: MZ2-MEL
MeWo = system: MeWo
RPMI7951 = system: RPMI7951
RVH-421 = system: RVH-421
SkMel28 = system: SkMel28
SkMel2 = system: SkMel2
SkMel30 = system: SkMel30
SkMel5 = system: SkMel5
UACC257 = system: UACC257
UACC62 = system: UACC62
WM115 = system: WM115
WM1716 = system: WM1716
WM1745 = system: WM1745
WM3526 = system: WM3526
WM3619 = system: WM3619
WM451Lu = system: WM451Lu
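Also: cell number obtained by counting DAPI-stained nuclei in high-throughput microscope images with image analysis software, screen run in 1,536-well plates.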

SMILES: C=C(c1ccc(C(=O)O)cc1)c1cc2c(cc1C)C(C)(C)CCC2(C)C [Bexarotene] + CCc1ccc(CCOc2ccc(CC3SC(=O)NC3=O)cc2)nc1 [pioglitazone] (first compound 2 µM, partner dose 2 µM)
- cell count (MZ2-MEL): 105%
- cell count (MeWo): 90.7%
- cell count (RPMI7951): 82.6%
- cell count (RVH-421): 134%
- cell count (SkMel28): 90.3%
- cell count (SkMel2): 99.4%
- cell count (SkMel30): 128%
- cell count (SkMel5): 88.4%
- cell count (UACC257): 118%
- cell count (UACC62): 93.6%
- cell count (WM115): 104%
- cell count (WM1716): 79%
- cell count (WM1745): 100%
- cell count (WM3526): 83%
- cell count (WM3619): 116%
- cell count (WM451Lu): 90.8%

SMILES: CS(=O)(=O)c1ccc(C(=O)Nc2ccc(Cl)c(-c3ccccn3)c2)c(Cl)c1 [vismodegib] + Cn1cncc1[C@@](N)(c1ccc(Cl)cc1)c1ccc2c(c1)c(-c1cccc(Cl)c1)cc(=O)n2C [tipifarnib] (first compound 1 µM, partner dose 0.01 µM)
- cell count (MZ2-MEL): 105%
- cell count (MeWo): 98.9%
- cell count (RPMI7951): 127%
- cell count (RVH-421): 74.4%
- cell count (SkMel28): 101%
- cell count (SkMel2): 85%
- cell count (SkMel30): 100%
- cell count (SkMel5): 103%
- cell count (UACC257): 83%
- cell count (UACC62): 90.8%
- cell count (WM115): 96.6%
- cell count (WM1716): 94.9%
- cell count (WM1745): 91.5%
- cell count (WM3526): 86.2%
- cell count (WM3619): 87%
- cell count (WM451Lu): 86.9%

SMILES: CS(=O)(=O)c1ccc(C(=O)Nc2ccc(Cl)c(-c3ccccn3)c2)c(Cl)c1 [vismodegib] + O=C1NC(=O)/C(=C/c2ccc(-c3ccc(F)cc3O)o2)S1 [AS252424] (first compound 1 µM, partner dose 1 µM)
- cell count (MZ2-MEL): 102%
- cell count (MeWo): 88.2%
- cell count (RPMI7951): 90.8%
- cell count (RVH-421): 91.1%
- cell count (SkMel28): 101%
- cell count (SkMel2): 100%
- cell count (SkMel30): 94.8%
- cell count (SkMel5): 96.3%
- cell count (UACC257): 95.1%
- cell count (UACC62): 95.2%
- cell count (WM115): 94%
- cell count (WM1716): 96.7%
- cell count (WM1745): 84.6%
- cell count (WM3526): 102%
- cell count (WM3619): 120%
- cell count (WM451Lu): 75.3%

SMILES: NC1(c2ccc(-c3nc4ccn5c(=O)[nH]nc5c4cc3-c3ccccc3)cc2)CCC1 + COc1cc2ncnc(Nc3ccc(Oc4ccccc4)cc3)c2cc1OC [SrcI1] (first compound 0.4 µM, partner dose 2 µM)
- cell count (MZ2-MEL): 93.3%
- cell count (MeWo): 92.5%
- cell count (RPMI7951): 80.2%
- cell count (RVH-421): 97.2%
- cell count (SkMel28): 74.6%
- cell count (SkMel2): 89.4%
- cell count (SkMel30): 79.9%
- cell count (SkMel5): 118%
- cell count (UACC257): 76.6%
- cell count (UACC62): 65.3%
- cell count (WM115): 74.8%
- cell count (WM1716): 111%
- cell count (WM1745): 79.3%
- cell count (WM3526): 57.1%
- cell count (WM3619): 105%
- cell count (WM451Lu): 115%

SMILES: CCCS(=O)(=O)Nc1ccc(F)c(C(=O)c2c[nH]c3ncc(Cl)cc23)c1F + O=S(=O)(c1ccccc1)N(CC(F)(F)F)c1ccc(C(O)(C(F)(F)F)C(F)(F)F)cc1 [T0901317] (first compound 0.08 µM, partner dose 1.4 µM)
- cell count (MZ2-MEL): 84.7%
- cell count (MeWo): 100%
- cell count (RPMI7951): 123%
- cell count (RVH-421): 120%
- cell count (SkMel28): 76.8%
- cell count (SkMel2): 102%
- cell count (SkMel30): 97.1%
- cell count (SkMel5): 89%
- cell count (UACC257): 65.2%
- cell count (UACC62): 54.1%
- cell count (WM115): 93.2%
- cell count (WM1716): 112%
- cell count (WM1745): 87.7%
- cell count (WM3526): 64%
- cell count (WM3619): 95.3%
- cell count (WM451Lu): 93.4%

SMILES: CCCS(=O)(=O)Nc1ccc(F)c(C(=O)c2c[nH]c3ncc(Cl)cc23)c1F + CO[C@@H]1[C@H](N(C)C(=O)c2ccccc2)C[C@H]2O[C@]1(C)n1c3ccccc3c3c4c(c5c6ccccc6n2c5c31)C(=O)NC4 [Midostaurin] (first compound 0.08 µM, partner dose 0.08 µM)
- cell count (MZ2-MEL): 84.8%
- cell count (MeWo): 88.5%
- cell count (RPMI7951): 104%
- cell count (RVH-421): 73.5%
- cell count (SkMel28): 101%
- cell count (SkMel2): 84.5%
- cell count (SkMel30): 119%
- cell count (SkMel5): 108%
- cell count (UACC257): 82.2%
- cell count (UACC62): 72.1%
- cell count (WM115): 103%
- cell count (WM1716): 102%
- cell count (WM1745): 90.4%
- cell count (WM3526): 61.4%
- cell count (WM3619): 68.3%
- cell count (WM451Lu): 111%

SMILES: CN(c1ncccc1CNc1nc(Nc2ccc3c(c2)CC(=O)N3)ncc1C(F)(F)F)S(C)(=O)=O + O=c1cc(-c2cccc3c2Sc2ccccc2S3)oc(N2CCOCC2)c1 [KU55933] (first compound 0.08 µM, partner dose 1 µM)
- cell count (MZ2-MEL): 97.3%
- cell count (MeWo): 98.9%
- cell count (RPMI7951): 63.5%
- cell count (RVH-421): 106%
- cell count (SkMel28): 84.3%
- cell count (SkMel2): 98.1%
- cell count (SkMel30): 107%
- cell count (SkMel5): 81.3%
- cell count (UACC257): 66.5%
- cell count (UACC62): 74.8%
- cell count (WM115): 80.5%
- cell count (WM1716): 102%
- cell count (WM1745): 78.3%
- cell count (WM3526): 91%
- cell count (WM3619): 91.4%
- cell count (WM451Lu): 69.5%

SMILES: CN(c1ncccc1CNc1nc(Nc2ccc3c(c2)CC(=O)N3)ncc1C(F)(F)F)S(C)(=O)=O + O=C(O)C(=O)Nc1sc2c(c1C(=O)O)CCNC2 [TCS401] (first compound 0.08 µM, partner dose 1.66667 µM)
- cell count (MZ2-MEL): 88.3%
- cell count (MeWo): 87.4%
- cell count (RPMI7951): 89.1%
- cell count (RVH-421): 119%
- cell count (SkMel28): 88.4%
- cell count (SkMel2): 81.1%
- cell count (SkMel30): 120%
- cell count (SkMel5): 71.1%
- cell count (UACC257): 64.9%
- cell count (UACC62): 73.9%
- cell count (WM115): 84%
- cell count (WM1716): 89.8%
- cell count (WM1745): 66.3%
- cell count (WM3526): 109%
- cell count (WM3619): 97.9%
- cell count (WM451Lu): 80.5%

SMILES: CCCS(=O)(=O)Nc1ccc(F)c(C(=O)c2c[nH]c3ncc(Cl)cc23)c1F + NCC(=O)Nc1ccc(-n2nc(C(F)(F)F)cc2-c2ccc3c(ccc4ccccc43)c2)cc1 [OSU03012] (first compound 0.08 µM, partner dose 1 µM)
- cell count (MZ2-MEL): 67.2%
- cell count (MeWo): 56%
- cell count (RPMI7951): 94.1%
- cell count (RVH-421): 95.2%
- cell count (SkMel28): 77.3%
- cell count (SkMel2): 54.5%
- cell count (SkMel30): 45.1%
- cell count (SkMel5): 112%
- cell count (UACC257): 86.1%
- cell count (UACC62): 58.6%
- cell count (WM115): 81%
- cell count (WM1716): 112%
- cell count (WM1745): 43.6%
- cell count (WM3526): 52%
- cell count (WM3619): 98.1%
- cell count (WM451Lu): 71.2%

From the supplement of paper PMC4604168 (melanoma cell lines)
